Test results as given in PubChem BioAssay AID1963576 (National Center for Advancing Translational Sciences (NCATS), 2024).
Out of some 46,000 compounds screened, about 60 (0.1%) were called active. About 3% were inconclusive and are not listed. The call rests on the fitted dose curve; in most records, active means well fitted inhibition curve with a large enough effect; inconclusive means small, poorly fitted or top-dose-only effect; inactive means no such curve, though single readings can be large or run the other way. This is one part of the list.

Assay: Primary qHTS assay for Inhibitors of ovarian cancer metastasis using an organotypic tumor microenvironment (TME) model. Further: nearly all actives have a fitted effect of over 65% in size.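 On activity change, negative = inhibition: plate controls were DMSO wells for no effect and tomatine positive control wells for full effect.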
Settings: SKOV3ip1-GFP adhesion/invasion on 3D omental model, fluorescence; series mostly up to 45.8 µM; activity change, negative = inhibition: at the top concentration
Procedure, shortened: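 A 3D layer of primary human omental fibroblasts, mesothelial cells, fibronectin and collagen I, grown 48 hr, received SKOV3ip1-GFP cells in serum-free medium plus compounds at 0.36-46 umol/L. After 2 hr RT and 16 hr 37 C, fixed adherent GFP cells were counted; normalized to DMSO and tomatine.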

outcome, inactive:
Cc1ccc(S(=O)(=O)NCCSc2nnnn2-c2ccc(Cl)c(C(=O)O)c2)cc1
CCCc1nc2ccccc2n2c(-c3cccc(C)c3)c3c(=O)n(C)c(=O)n(C)c3c12
CCn1cc2nc(SCc3ccccc3)n(Cc3ccc(C)cc3)c(=O)c2n1
COc1cccc(NC(=O)Nc2cc(-c3cn4cccnc4n3)ccc2OC)c1
CCOc1cc(Cl)c(S(=O)(=O)n2cc(C)nc2CC)cc1Cl
COc1ccc(C(=O)NCCc2nc3ccccc3[nH]2)cc1
CC(C)(C)c1ccc(OCc2cc(=O)n3c4c(sc3n2)CCCC4)cc1
CCOc1ccc(CCNC(=O)CCSCc2cccc(Cl)c2)cc1OCC
Cc1ccc(CCNC(=O)C2CCCN(S(=O)(=O)c3ccc4c(c3)oc(=O)n4C)C2)cc1 (stereo not given)
O=C(COc1ccc(F)cc1)OCc1cc(=O)n2nc(C3CC3)sc2n1
O=C(Nc1cc(Cl)ccc1O)c1cc2nc(-c3ccc4c(c3)OCO4)cc(C(F)(F)F)n2n1
CN(C)c1ccc(NC(=O)C2(c3cccs3)CCOCC2)cc1
O=C(CSCc1ccc(F)cc1)N1CCc2c([nH]c3ccccc23)C1c1ccccc1 (stereo not given)
CCCCCNc1nc2c(-c3ccccc3)nnn2c2ccccc12
O=C(CC(=O)Nc1ccccc1F)Nc1ccc2nc3n(c(=O)c2c1)CCCCC3
CC(C)CCn1c(=O)c2sccc2n2c(CCCC(=O)Nc3ccc(F)c(Cl)c3)nnc12
COc1cccc(CNC(=O)c2ccc(CN3CC(=O)N4CCCCC4C3=O)cc2)c1 (stereo not given)
COC(=O)c1cc2oc3ccccc3c2n1CC(=O)Nc1ccc(C)cc1Cl
O=C(CCn1c(=O)c2ccccc2n(Cc2ccc(Cl)cc2)c1=O)NCc1ccc2c(c1)OCO2
CCOc1ccccc1NC(=O)CCS(=O)(=O)c1ccc(OC)cc1
Cc1cccc(-n2ccnc2SCC(=O)Nc2cc(C(F)(F)F)ccc2Cl)c1
CCCCC(=O)Nc1cccc(-c2nc3ccccc3s2)c1
CCn1cc(C(=O)NCc2ccccc2Cl)c(=O)c2cc(S(=O)(=O)N3CCOCC3)ccc21
CCOC(=O)C1=C(CN(C)Cc2ccccc2)NC(=O)NC1c1ccc(OC(C)C)cc1 (stereo not given)
CCCOc1ccc(CNC(=O)c2cc3oc4ccccc4c3n2C)cc1
Cc1ccc(NC(=O)[C@H](Cc2ccccc2)N2Cc3ccccc3C2=O)cc1F
O=C(CN1C(=O)CC(c2ccco2)Sc2ccccc21)Nc1ccc(OC(F)(F)F)cc1 (stereo not given)
CCCn1c2ccc(C)cc2c2nnc(SCCN3CCCCC3)nc21
Cc1ccc(CNc2nc3nc(C)c(Cl)c(C)n3n2)cc1
Cn1c(C(=O)Nc2cccc(Cl)c2)cc2c(=O)n(C)c3ccccc3c21

Activity change, negative = inhibition, inactive:
CC(=O)Nc1ccc(C2Nc3c(C)cc(C)cc3-c3cc(C)nn32)cc1 (stereo not given) 0.703%
O=C(NCc1ccccc1Cl)C1CCCN(c2ncnc3onc(-c4ccc(F)cc4)c23)C1 (stereo not given) -12.8%
O=C(NCC(c1ccco1)S(=O)(=O)c1cccs1)c1ccc(C(F)(F)F)cc1 (stereo not given) 2.5%
CN(C)c1ccc(CNS(=O)(=O)c2csc(C(N)=O)c2)cc1 16.3%
Clc1ccc(-c2noc3ncnc(N4CCCCC4)c23)cc1 -2.63%
COc1ccc(C)cc1NC(=O)c1cc(S(=O)(=O)NCCC2=CCCCC2)ccc1F 0.35%
Cc1cc(C(C)(C)C)cc(C)c1CC1=NCCN1 6.54%
Cc1ccccc1NC(=O)CSc1nc2ccc(NC(=O)c3ccco3)cc2s1 -7.11%
CCCSc1nc2c(c(=O)[nH]1)C(c1ccc(O)c(OCC)c1)CC(=O)N2 (stereo not given) -23.4%
Cn1c(=O)c2c(nc(NCc3ccccc3)n2Cc2ccc(Cl)c(Cl)c2)n(C)c1=O -3.03%
CC(C)(CO)[C@@H](O)C(=O)NCCC(=O)O -4.68%
COc1ccc(N2CC(C(=O)Nc3ccccc3-c3nc(-c4ccc(C)cc4)no3)CC2=O)cc1 (stereo not given) 9.8%
Cc1ccccc1CSCc1ccc(C(=O)NCCc2ccccc2)o1 -8%
COc1cccc(NC(=O)c2oc3ccc(S(=O)(=O)N4CCC5(CC4)OCCO5)cc3c2C)c1 -2.8%
CCOc1ccc(C(CC(=O)Nc2ccc(C(=O)OC)cc2)N2Cc3ccccc3C2=O)cc1OC (stereo not given) -3.23%
COc1ccccc1NC(=O)CSc1nc(-c2cccc(Cl)c2)nc2c1Cc1c(CO)cnc(C)c1O2 3.02%
Oc1c(C(c2ccc(Cl)cc2Cl)N2CCCC2)sc2nc(-c3ccco3)nn12 (stereo not given) -9.84%
CCc1ccc(C(=O)c2cn(Cc3ccccc3)c3cc(OC)c(OC)cc3c2=O)cc1 1.51%
CCc1ccc(-n2nc(C)c3c(C)cc(=O)n(CC(=O)N(CC)Cc4ccccc4)c32)cc1 7.64%
CCCCOC(=O)c1ccc(Nc2nc3ccc(C)cc3n3cnnc23)cc1 -1.31%
CCc1ccccc1NC(=O)COC(=O)c1cn(CC)c2nc(C)ccc2c1=O 7.42%
CCCOc1ccc(Cn2c(=O)sc3ccccc32)cc1 -1.1%
CCc1ccc(OC(=O)c2sc3ncn(Cc4cccc(F)c4)c(=O)c3c2C)cc1 30.8%
O=P(O)(O)C(O)(Cn1ccnc1)P(=O)(O)O 12.9% [at 23.2 µM]
COc1ccccc1NC(=O)c1c(NC(=O)c2cccs2)sc2c1CCC(C(C)(C)C)C2 (stereo not given) 11.3%
Cc1cccc(N2CCN(C(=O)c3ccc4c(c3)N(Cc3cccc(Cl)c3)C(=O)c3ccccc3S4=O)CC2)c1C (stereo not given) -6.9%
Cc1ccc(-c2nc(SCC(=O)Nc3cc(C)on3)c3c(=O)n(C)c(=O)n(C)c3n2)cc1 -2.88%
CC(C)Oc1ccc(CNC(=O)c2cnc3sc(N4CCCCCC4)nn3c2=O)cc1 12.6%
COc1ccc2c3n(c(=NC(=O)c4cccnc4)nc2c1OC)CCN3 -8.44%
C[C@]12CCC3c4ccc(O)cc4CCC3C1CCC2=O (stereo not given in full) -6.54%
Cc1ccc(N2CCN(C(=O)Nc3cn(CC(C)C)c(=O)c4ccccc34)CC2)c(C)c1 -4.3%
O=C(NCc1ccc(F)cc1Cl)c1ccc(CSCc2ccccc2Cl)o1 -8.15%
Cc1ccc(NC(=O)c2cc(-c3cccs3)nc3ccccc23)c(C)c1 1.88%
CCn1c(C(=O)NCc2ccccc2)cc2sc(Cl)cc21 2.85%
COc1ccccc1/C=C(\C#N)C(=O)NCC1CCCO1 (stereo not given) -7.99%
CCCN(CCC)CCNC(=O)Cn1cnc2sc(C)c(S(=O)(=O)N3CCN(c4ccccc4OC)CC3)c2c1=O 6.74%
CC#CCn1c(N2CCC[C@@H](N)C2)nc2c1c(=O)n(Cc1nc(C)c3ccccc3n1)c(=O)n2C -23.2%
Cc1cc(C)n2nc(CNS(=O)(=O)c3ccc(F)cc3)nc2n1 2.08%
COc1ccccc1NC(=O)N1CCOc2ccccc21 -1.67%
COc1ccccc1NC(=O)Cn1c(=O)n(Cc2nc(C)no2)c(=O)c2cc3c(cc21)OCO3 -3.37%
CCN(CC)CCNC(=O)c1c(C)[nH]c(C=C2C(=O)Nc3ccc(F)cc32)c1C -23.8% [at 92.2 µM]
Cc1ccc(CNC(=O)c2ccc(CSCc3c(F)cccc3Cl)o2)cc1 0.796%
CCOc1ccc(/C=C/c2nc(C#N)c(N3CCCCCC3)o2)cc1 -6.67%
CCOC(=O)c1[nH]c(C)c(C(=O)NCCc2ccccc2)c1C 0.941%
CN(c1ccc(Cl)cc1)S(=O)(=O)c1nnc(NC(=O)c2ccco2)s1 22.7%
CCc1ccc(NC(=O)c2cc(CN3CCOCC3)on2)cc1 2.27%
CCOc1ccc(-n2c(SCC(=O)N3CCCc4ccccc43)nc3c([nH]c4ccccc43)c2=O)cc1 -4.3%
COc1ccc(CCNC(=O)C(=O)Nc2ccc(C)c(C)c2)cc1OC -11.4%
Cc1ccc(C)c(Oc2c(C(F)(F)F)oc3c(CN4CCN(C)CC4)c(O)ccc3c2=O)c1 12.2%
COc1ccc(C)cc1NC(=O)Cc1ccc(NC(=O)N2CCCCc3ccccc32)cc1 2.87%
CC(C)c1ccc(Nc2c(-c3ccsc3)nc3ccc(Cl)cn23)cc1 -4.87%
O=C(Nc1ccccc1[N+](=O)[O-])c1csnn1 13.8%
CCC(=O)C1=C(c2ccccc2)N(C(=O)CC)n2c(nnc2C2CCCCC2)S1 1.07%
O=C(CSc1nc(-c2cccs2)cc(C(F)(F)F)n1)Nc1ccccc1Cl -0.707%
O=C(Nc1ccc2nc(SCC(=O)N3CCc4ccccc43)sc2c1)c1ccc(Cl)cc1 -26.1%
COC(=O)c1c(SC)nc2ccccc2c1OCc1cc(C)ccc1C -0.75%
Cc1ccc(CNC(=O)c2ccc(NC(=O)c3nsc4ccccc34)cc2)cc1 -7.56%
CCOc1ccccc1NC(=O)C(=O)NCC(c1cccnc1)N1CCN(c2ccccc2)CC1 (stereo not given) 13.4%
Cc1cccc(C(=O)Nc2sc3c(c2C(=O)Nc2ccccc2)CCC3)c1 2.86%
Cc1ccc(NC(=O)CN2C(=O)C(c3ccc(F)cc3)=NC2(C)C)c(C)c1 3.95%
CCOc1ccc(CCNC(c2nnc(-c3ccccc3)o2)c2ccccc2Cl)cc1OCC (stereo not given) -9.24%
CCCN(C(=O)Cn1nc(Cc2cccnc2)c2ccccc2c1=O)c1ccc(C(C)C)cc1 -1.51%
CCc1ccccc1NC(=O)Cn1c(=O)oc2ccccc21 11.3%
CC1=C(C(=O)OC2CCCCCC2)C(c2c(Cl)cccc2Cl)CC(=O)N1 (stereo not given) -20.5%
CCOc1ccc(C2CC(=O)c3c([nH]c(C(=O)OC4CCCCCC4)c3C)C2)cc1 (stereo not given) 0.0887%
COc1ccc(C(=O)NCC(c2cccs2)S(=O)(=O)c2cccs2)cc1 (stereo not given) -8.78%
Cc1ccc(S(=O)(=O)Nc2nc3n(n2)C(c2ccc(Cl)cc2)C=C(c2ccccc2)N3)cc1 (stereo not given) -9.29%
COc1ccc(CCNC(=O)c2cc(-c3ccc(C)c(C)c3)nc3ccccc23)cc1OC -8.48%
O=S(=O)(c1ccc(Br)cc1)N1CCn2cccc2C1c1ccc(Br)cc1 (stereo not given) 4.51%
COc1ccc(-c2nc(CS(=O)CC(=O)NCc3ccccc3Cl)c(C)o2)cc1OC (stereo not given) -1.23%
